# Experimental data reported in PubChem BioAssay (Tox21).
# The inconclusive results got no clear call from the source; some entries with a clear call stand among them for comparison. Potencies beside an inconclusive call are fits to weak or partial responses and may not hold up. Active and inactive are the calls of the source. The call rests on the fitted dose curve; in most records, active means well fitted inhibition curve with a large enough effect in the repeat runs; inconclusive means weak or mixed curves; inactive means no such curve, though single readings can be large or run the other way.
# Molecular target: Cytochrome P450 1A2 (Homo sapiens) (UniProt P05177)
# UniProt P05177, sequence (P05177 whole entry, looked up): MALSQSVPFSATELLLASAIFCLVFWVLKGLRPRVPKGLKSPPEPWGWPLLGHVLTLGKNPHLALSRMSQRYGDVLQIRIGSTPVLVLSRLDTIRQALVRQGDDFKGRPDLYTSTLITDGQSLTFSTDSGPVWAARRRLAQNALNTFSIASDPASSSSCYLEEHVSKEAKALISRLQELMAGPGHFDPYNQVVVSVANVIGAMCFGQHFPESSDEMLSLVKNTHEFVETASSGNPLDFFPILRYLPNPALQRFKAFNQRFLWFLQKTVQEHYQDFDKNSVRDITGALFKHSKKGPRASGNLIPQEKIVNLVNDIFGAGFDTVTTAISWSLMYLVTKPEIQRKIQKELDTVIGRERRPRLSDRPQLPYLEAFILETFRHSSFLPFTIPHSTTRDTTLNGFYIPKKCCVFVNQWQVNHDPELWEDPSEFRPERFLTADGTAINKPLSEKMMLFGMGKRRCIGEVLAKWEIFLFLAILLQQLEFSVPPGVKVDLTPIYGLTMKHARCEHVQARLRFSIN
# Test: Cytochrome P450 Family 1 Subfamily A Member 2 (CYP1A2) small molecule antagonists: luciferase reporter qHTS assay (AID 1671199); further: nearly all actives have a fitted effect of over 50% in size
# Settings: P450-Glo CYP1A2 enzyme, luciferin luminescence, 1 h; series mostly up to 115 µM; activity change, negative = inhibition: at the top concentration
# Description: National Center for Advancing Translational Sciences [NCATS]
# U.S. Environmental Protection Agency [EPA]
# National Institutes of Environmental Health Sciences [NIEHS]
# National Toxicology Program [NTP]
# U.S. Food and Drug Administration [FDA]
# Cytochrome P450 (CYP) enzymes are membrane-bound hemeproteins that play a key role in metabolism of drugs and xenobiotics. Evaluation of the effect of chemicals on CYP isozymes is useful to minimize the adverse drug reactions and toxicities in drug development process. Tox21 chemicals were tested for their effect on CYP enzyme activities by using P450-Glo (TM) screening systems (Promega Corporation, Madison, WI). These systems provide a luminescent method containing proluciferin substrates and are converted to luciferin products by CYP isozymes. The luciferin products formed are detected with a luciferin detection reagent, and the amount of light produced is proportional to CYP activity. P450-Glo (TM) CYP1A2 screening system (Catalog. No. V9770) was used to detect the compounds that interfere in CYP1A2 activity. The positive control compound used for CYP1A2 assay is furafylline (Sigma-Aldrich, St. Louis, MO).
# Tox21 Assay Protocol Summary:
# Two ul of enzyme-substrate mix was dispensed into medium binding white/solid 1536-well plates (Greiner Bio-One North America Inc., Monroe, NC) using a BioRaptr Flying Reagent Dispenser (FRD, Beckman Coulter, Brea, CA). Compounds dissolved in DMSO and positive control (furafyllline) were transferred to the assay plates at 23 nl using a Pintool station (Wako, San Diego, CA). The assay plates were incubated at room temperature for 10 min. Then 2 ul of NADPH regeneration solution was added to each well of the assay plates using an FRD and incubated at room temperature for 1 h. The reaction was stopped by adding 4 ul of detection reagent using an FRD and after 20 min incubation at room temperature the luminescence signal was measured using a ViewLux plate reader (Perkin Elmer, Shelton, CT). Data were expressed as relative luminescence units.
# On the % scale 0 is the no-effect control and ±100 the full control effect; potency means the concentration at half of the fitted maximal effect; tags describe the fitted curve by direction and shape.
Structure (SMILES),"activity change, negative = inhibition",Potency
CCC1(C)CC(=O)NC1=O (stereo not given),inactive: -12.2% [at 53 µM],
OCCCc1cccnc1,inactive: 0.818%,
CC(=O)c1ccc(O)cc1,,"inconclusive: 39.9 µM [inhibitor, partial curve, poor fit] and inactive"
Cc1ccccc1N=C(N)N=C(N)N,inactive: -22.3%,
NCc1ccccc1Sc1ccccc1CO,,"inconclusive: 27.5 µM [inhibitor, partial curve]"
CO/N=C(/C(=O)N[C@@H]1C(=O)N2C(C(=O)OCOC(=O)C(C)(C)C)=C(C)CS[C@H]12)c1csc(N)n1,,"inconclusive: 27.5 µM [inhibitor, partial curve]"
COC(/C=C(\C)CCC=C(C)C)OC,inactive: -15.9%,
COc1ccc(C)cc1N,,"inconclusive: 30.6 µM [inhibitor, partial curve]"
COc1cc2c(cc1OC)-c1cc3ccc(OC)c(OC)c3c[n+]1CC2,,active: 35.9 µM
Nc1cccc(S(=O)(=O)c2cccc(N)c2)c1,inactive: -14.7%,
COc1ccc(/C=N/NC(=O)c2ccncc2)cc1OC,,"inconclusive: 30.9 µM [inhibitor, partial curve]"
C=CC(=O)NCOCC(C)C,,"inconclusive: 28.3 µM [inhibitor, partial curve]"
CCCCN(CCC(=O)OCC)C(C)=O,,"inconclusive: 35.6 µM [inhibitor, partial curve]"
O=CN(CCO)CCO,,"inconclusive: 63.3 µM [inhibitor, partial curve]"
COc1nc(N)nc2nc[nH]c12,,active: 17.9 µM
Nc1ccc([N+](=O)[O-])c(N)c1,,"inconclusive: 61.7 µM [inhibitor, partial curve]"
C=C(C)C(=O)OCCCCCCCCCCCCCCCCCC,inactive: -17.3% [at 23.6 µM],
CC1(C)Oc2ccc(C#N)cc2[C@@H](N2CCCC2=O)[C@@H]1O,,"inconclusive: 40.7 µM [inhibitor, partial curve, poor fit]"
O=C(O)/C=C/c1ccc(Cn2ccnc2)cc1,,active: 24.5 µM
CCCCNC1CC(C)(C)NC(C)(C)C1,inactive: -16%,

Structure (SMILES),"activity change, negative = inhibition",Potency
CCCCc1ccc(Cl)cc1,,inconclusive: 63.3 µM [inhibitor]
CCOC(=O)c1ccccc1OC,,active: 35.6 µM
CC1=CC=C(C(C)C)CC1,,active: 31.7 µM
COc1ccc(Cl)cc1C,,"inconclusive: 84.7 µM [inhibitor, partial curve]"
C=CCn1c(=O)n([C@@H]2O[C@H](CO)[C@@H](O)[C@H]2O)c2nc(N)[nH]c(=O)c21,,"inconclusive: 24.5 µM [inhibitor, partial curve]"
COC(=O)CCCC(=O)O,inactive: -11.7%,
O=C(O)CCSSCCC(=O)O,,"inconclusive: 45.5 µM [inhibitor, partial curve]"
CCCCCCCCCCC(CO)CCCCCCCC (stereo not given),,"inconclusive: 30.9 µM [inhibitor, partial curve, poor fit]"
CC12CCC(C(=O)C1=O)C2(C)C (stereo not given),,"inconclusive: 64 µM [inhibitor, partial curve]"
CCCCCCCCCCCCCCCCO,,"inconclusive: 28.3 µM [inhibitor, partial curve]"
OC1OC[C@@H](O)[C@H](O)[C@H]1O (stereo not given in full),inactive: -16.3%,
CC(C)[C@H]1CC[C@@H](C)CC1=O,inactive: -10.9%,
Clc1ccc2c(Cl)ccnc2c1,,active: 5.64 µM
CCCOCCOCCOCCO,,"inconclusive: 35.6 µM [inhibitor, partial curve]"
CC(C)CCCCCCN,inactive: -14.3%,
CC(C)(Oc1ccc(CCNC(=O)c2ccc(Cl)cc2)cc1)C(=O)O,,"inconclusive: 25.7 µM [inhibitor, partial curve]"
Cc1ccc2n[nH]nc2c1,,inconclusive: 35.6 µM [inhibitor]
CC(C)CCCC(C)N (stereo not given),,active: 21.9 µM
FC(F)(F)C(F)(F)C(F)(F)C(F)(F)C(F)(F)C(F)(F)C(F)(F)C(F)(F)C(F)(F)C(F)(F)F,inactive: -15.3% [at 10.5 µM],
COCC(C)OC(C)=O (stereo not given),,"inconclusive: 31.5 µM [inhibitor, partial curve, poor fit]"
